# Measurements published in PubChem BioAssay AID1508623 (National Center for Advancing Translational Sciences (NCATS), 2021).
# Among all 48,000 compounds or so, about 450 (0.94%) were called active. Not shown: some 19% with an inconclusive outcome. Calls come from the whole dose curve; as a rule, active = well fitted inhibition curve with a large enough effect; inconclusive = small, poorly fitted or top-dose-only effect; inactive = no such curve, though single readings can be large or run the other way. The list shows a part of the results.
# Experiment: Primary qHTS for Identification of Small Molecule Inhibitors of Huntingtin Promoter Activity; note: nearly all actives have a fitted effect of over 50% in size
# Settings: HEK293 HTT promoter firefly luciferase reporter (activity 0% = vehicle and -100% = no light), 24 h; series mostly up to 57.5 µM; activity change, negative = inhibition: at the top concentration
# Method in brief: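 HEK293 Fluc reporter, 2,500 cells/well, 24 h pre-culture; cpds up to 57.5 uM final, 24 h 37 degrees C; Dual-Glo, 10 min RT; normalized vehicle = 0%, zero RLU = -100%.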
# Potency is the fitted concentration of half-maximal effect.
SMILES,"activity change, negative = inhibition",Potency
O=C(CSc1nnc(-c2ccc(F)cc2)o1)N1CCCc2ccccc21,inactive: -20.8%,
O=C(CCC1N=C2c3ccccc3N=C(SCc3ccc(Cl)cc3)N2C1=O)N1CCN(c2ccccc2)CC1 (centres undefined),inactive: 3.19%,
COc1ccc(N2CCN(CCCNC(=O)Nc3ccccc3)CC2)cc1,inactive: -1.7%,
COC(=O)c1sccc1S(=O)(=O)N(CC(=O)NCc1ccc(C)cc1)c1ccc(C)cc1,inactive: -18.7%,
COc1ccc(NC(=O)CCCn2nc(C)c3sc4ccccc4c3c2=O)cc1,inactive: 3.92%,
COc1ccc(S(=O)(=O)NCCSc2nnnn2-c2ccccc2)cc1,inactive: -12.5%,
COc1ccc(-c2nc(CSCC(=O)N3CCN(c4ccc(F)cc4)CC3)c(C)o2)cc1,,active: 12.6 µM
CCN(Cc1ccccc1)S(=O)(=O)c1ccc(-c2coc(C)n2)cc1,inactive: -24.6%,
Cc1cc(-n2c(C)nc3ccccc3c2=O)ccc1NC(=O)C(F)(F)F,inactive: -0.0316%,
Fc1ccc(C2=CC(c3ccc(F)cc3)n3c(nc4ccccc43)N2)cc1 (centres undefined),inactive: 46.2%,
O=C(Cn1ncc2c3ccccc3n(Cc3ccc(F)cc3)c2c1=O)NCc1cccs1,inactive: -8.04%,
CC(CNC(=O)c1ccc2nc(Cc3ccccc3)oc2c1)c1ccccc1 (centres undefined),inactive: -30.6%,
CC1CCCN(S(=O)(=O)c2ccc3c(c2)CCN3C(=O)CCC(=O)O)C1 (centres undefined),inactive: -1.71%,
CCC(C)Nc1ncnc2c1cnn2-c1ccc(F)cc1 (centres undefined),inactive: 38.9%,
Cc1cc(C(=O)Nc2ccc(-n3c(C)nc4ccccc4c3=O)cc2)ccc1[N+](=O)[O-],inactive: -30%,
Cc1ccc2c(=O)cc(C(=O)Nc3ccc(S(=O)(=O)Nc4onc(C)c4C)cc3)oc2c1C,inactive: -3.35%,
O=C(CSc1oc(-c2ccccc2)nc1S(=O)(=O)c1ccc(Cl)cc1)c1ccccc1,inactive: -23.6%,
Cc1ccc(-n2cc(C(=O)Oc3ccc(F)cc3)c3ccccc3c2=O)cc1,inactive: -15%,
Cc1[nH]c(C=C2C(=O)Nc3ccc(S(=O)(=O)N(C)c4cccc(Cl)c4)cc32)c(C)c1C(=O)N1CCN(C)CC1,inactive: -19.5%,
CCN(C(=O)Cn1c(=O)n(-c2ccccc2)c(=O)c2ccc(C(=O)NCc3ccc4c(c3)OCO4)cc21)c1cccc(C)c1,inactive: -6.8%,
Cc1cc(C)cc(OCC(=O)Nc2c(C(=O)c3ccccc3)oc3ccccc23)c1,inactive: 0%,
O=C(CCn1c(=O)c2cccn2c2cccnc21)Nc1ccccc1C(F)(F)F,inactive: 3.8%,
CCC(=O)N1c2ccccc2CC1C(=O)NCc1cc(OC)ccc1OC (centres undefined),inactive: 10%,
CCCCn1cnc2cc(NCc3ccc(OCC)cc3)ccc21,inactive: 7.37%,

SMILES,"activity change, negative = inhibition",Potency
CCCCCCCCCCCCSCCOCCO,inactive: 2.71%,
O=C(CCC(=O)c1ccc(F)cc1)Nc1ccc(Cl)cc1,inactive: -3.94%,
CCn1cc(S(=O)(=O)c2cccc(C)c2)c(=O)c2cc(F)c(N3CCCC(C)C3)cc21 (centres undefined),inactive: -12%,
CCOc1ccc(CNC(=O)C2CCCCN2S(=O)(=O)c2ccc(F)cc2)cc1OC (centres undefined),inactive: -23.8% [at 11.5 µM],
COc1ccc(-c2nc3c(c(SC)n2)Cc2c(CO)cnc(C)c2O3)cc1,inactive: -15.5%,
CCn1c(=O)c2cc(C(=O)NCCCN3CCN(C)CC3)sc2c2ccccc21,inactive: 17.6%,
O=C(CSc1n[nH]c(-c2ccccc2Cl)n1)NCc1ccc(F)cc1,inactive: -12.4%,
Cc1ccc(Nc2c(-c3ccc(Br)o3)nc3ccccn23)cc1,inactive: 0.686%,
COc1ccc(S(=O)(=O)NCc2nc3nc(C)cc(C)n3n2)cc1,inactive: 6.14%,
CCC(=O)Oc1c(Sc2ccc(Cl)cc2)c(C)nn1-c1ccccc1,inactive: -25.4%,
Cc1ccc(Cl)cc1N1CCN(C(=O)Cn2ncc3c4ccccc4n(C)c3c2=O)CC1,inactive: 21.5%,
CCOc1ccc(NC(=O)CSC2=Nc3ccccc3C3=NC(CCC(=O)NCc4ccco4)C(=O)N23)cc1 (centres undefined),inactive: 15.7%,
Cc1ccc(-c2nc(CS(=O)(=O)CC(=O)Nc3ccc(Br)cc3F)c(C)o2)cc1,inactive: -12.5%,
Cc1cc(Cl)ccc1NS(=O)(=O)c1c(C(=O)N2CCC(C)CC2)c(C)n(C)c1C,inactive: -32.1%,
CC1CCCN(c2nc3c(-c4ccc(Cl)cc4)nnn3c3ccccc23)C1 (centres undefined),inactive: -20.1%,
COc1ccc2oc(=O)c(-c3nnc(-c4ccc(C)cc4)o3)cc2c1,inactive: -14.3%,
CCN(CC)S(=O)(=O)c1ccc2c(c1)N(CC(=O)NCc1ccccc1)C(=O)C1CCCCN21 (centres undefined),inactive: -23.7%,
O=C(NCCc1csc(-c2cccnc2)n1)c1cccc(Cl)c1,inactive: -33.7%,
Cc1ccc2ncc(C(=O)c3ccc(C)c(C)c3)c(S(=O)(=O)c3ccc(F)cc3)c2c1,inactive: -25.7%,
Cc1c(C)n(CCN(C)C)c2ccc(C(=O)OCCN(C)C)cc12,inactive: 4.27%,
Cc1ccccc1Cn1c(SCc2ccc(C(=O)NC3CCCCC3)cc2)nc2ccncc21,inactive: -8.36%,
Cc1nc(SCc2cccc(Cl)c2)nc2c1CCCC2,inactive: -7.21% [at 11.5 µM],
CC(C)N(Cc1nc(-c2ccc(Cl)cc2)no1)C(=O)c1ccc(C(C)(C)C)cc1,inactive: -5.84%,
CC1=C(c2ccc(Cl)cc2)S(=O)(=O)N=C1N1CCN(c2cccc(C)c2C)CC1,inactive: -6.56%,

SMILES,"activity change, negative = inhibition",Potency
Cc1cccc(NC(=O)CSc2nc3ccc(NC(=O)c4ccccc4)cc3s2)c1,inactive: -11.4%,
COc1cccc(CN2C(=O)c3ccccc3Sc3ccc(C(=O)OCc4ccco4)cc32)c1,inactive: -26.8%,
COc1cc(NC(=O)Cn2c(=O)cc(C)c3c(C)nn(-c4ccc(C)cc4)c32)cc(OC)c1,inactive: -25%,
CC(=O)N1c2ccc(S(=O)(=O)N3CCCCCC3)cc2CC1C(=O)NCc1cccc(C)c1 (centres undefined),inactive: -6.58%,
CCOc1ccc(-c2cc3nc(C4CCN(C(=O)OC(C)(C)C)CC4)c(C(=O)Nc4cccc(CC)c4)cn3n2)cc1,inactive: -24.8%,
Fc1ccc(NCc2ccccc2-c2nnc(-c3ccccc3Cl)o2)cc1,inactive: 45.3%,
Cc1ccc(CNc2nnc(C)c3nnn(Cc4ccc(F)cc4)c23)cc1,inactive: -17.7%,
CCSc1nc2n(n1)C(c1ccc(Cl)cc1Cl)C(C(=O)Nc1ccccc1C)=C(C)N2 (centres undefined),inactive: -21.8%,
Cc1ccc(-n2ccn(CC(=O)NCCc3ccccc3)c(=O)c2=O)cc1C,inactive: 19.1%,
CC(C)(C)c1ccc(-c2nc(NC(=O)CSc3ncnc4sc5c(c34)CCCC5)ns2)cc1,inactive: 2.3%,
Cc1ccc(-n2ncc3c(NCc4ccccc4)ncnc32)cc1Cl,inactive: 22.4%,
COc1ccc(N2CC(NC(=O)/C=C\c3ccc4c(c3)OCO4)CC2=O)cc1OC (centres undefined),inactive: -14.9%,
COc1ccc(NC(=O)CN(C)S(=O)(=O)c2ccc3c(c2)CCCN3C(C)=O)cc1,inactive: -26.8%,
CCc1ccccc1NC(=O)Cn1cc(S(=O)(=O)N2CCCC2)c(S(=O)(=O)N2CCCC2)c1,inactive: 3.14% [at 11.5 µM],
O=C(c1ccco1)N(Cc1cccnc1)c1nc2c(F)cc(F)cc2s1,inactive: -7.8%,
COc1ccccc1NC(=O)CSc1nncn2c1cc1sccc12,inactive: 5.12%,
C[C@]12CC[C@@H]3c4ccc(O)cc4C[C@@H](CCCCCCCCCS(=O)CCCC(F)(F)C(F)(F)F)[C@H]3[C@@H]1CC[C@@H]2O (some centres undefined),inactive: -3.35%,
Cc1ccccc1CNC(=O)c1ccc2nc(SCc3ccc(F)cc3)n(C)c2c1,inactive: -28.3%,
CCOCCCNC(=O)C(c1ccccc1)N(Cc1ccc2c(c1)OCO2)C(=O)c1ccc(NC(C)=O)cc1 (centres undefined),inactive: -17.1%,
Cc1ccccc1CN1C(=O)c2ccccc2S(=O)c2ccc(C(=O)NCc3ccc(Cl)cc3)cc21 (centres undefined),inactive: -26.9%,
Cc1ccc2cccc(NC(=O)c3ccc(OC(C)C)cc3)c2n1,inactive: -7.51%,
CCc1ccccc1NC(=O)CN(c1ccccc1)S(=O)(=O)c1ccsc1C(=O)OC,inactive: -23.4%,
O=C(NCc1ccc2c(c1)OCO2)c1ccc2c(c1)N(Cc1ccccc1F)C(=O)c1ccccc1S2,inactive: -4.19%,
CC(C)(C)OC(=O)N1CCC(c2c(C(=O)NCCN3CCc4ccccc4C3)cnn2-c2ccc(F)cc2)CC1,inactive: -30.6%,

SMILES,"activity change, negative = inhibition",Potency
CC(C)c1ccc(OCC(=O)NCCS(=O)(=O)N2CCN(c3ccc(F)cc3)CC2)cc1,inactive: -15.6%,
COc1ccccc1C(=O)N1c2ncnn2C2(CCCCC2)[C@@H]2CCCC[C@@H]21,inactive: -23.4%,
COc1ccc(Cn2c(C(=O)O)c(CNC3CCCC3)c3ccc(OC)cc32)cc1,inactive: -23%,
CCn1c(=O)cc(SCC(=O)NCc2cccc(Cl)c2)c2ccccc21,inactive: -26.9%,
CCOC(=O)c1ccc(NC(=O)C(CC)Sc2nc3ccncc3[nH]2)cc1 (centres undefined),inactive: -22.3%,
CCOc1ccc(-c2nn(-c3ccccc3)cc2C2NC(=O)NC(C)=C2C(=O)OC(C)C)cc1 (centres undefined),inactive: -26.5%,
COCCNC(=O)c1c[nH]c2ccc(S(=O)(=O)Nc3ccc(F)cc3F)cc2c1=O,inactive: 2.5%,
Cn1ccc2c(OCC(=O)NCc3ccccc3)cccc2c1=O,inactive: -20.1%,
CC(C)c1nn2c(=O)cc(COC(=O)c3cccc(NC(=O)c4cccs4)c3)nc2s1,inactive: -18.9%,
CCc1ccc(C2=NN(CCC(=O)NCCc3ccc(OC)c(OC)c3)C(=O)CC2)cc1,inactive: -27.6%,
Cc1ccc(N2CC(NC(=O)c3cc4ccccc4o3)CC2=O)cc1C (centres undefined),inactive: -22.8%,
CCc1ccccc1NC(=O)CCOc1ccccc1,inactive: -12.6%,
CCc1ccccc1NC(=O)Cn1c(=O)n(-c2ccc(CC(=O)NCC3CCCO3)cc2)c(=O)c2ccccc21 (centres undefined),inactive: -9.95%,
COc1ccc(CSc2nc3ccncc3n2CC(=O)Nc2ccc(C)c(F)c2)cc1,inactive: 19.9%,
Cc1ccccc1C(=O)Nc1ccc2nc(SCC(=O)N3CCc4ccccc43)sc2c1,inactive: -14.5%,
COc1ccc(CNC(=O)c2ccc3c(c2)N(Cc2ccc(C)cc2)CCS3)cc1,inactive: -30.6%,
CCOC(=O)c1cnc2nc(NCc3cccc(Br)c3)[nH]n2c1=O,inactive: -9.05%,
COc1ccccc1CNC(=O)CC(c1ccc(C)cc1)N1Cc2ccccc2C1=O (centres undefined),inactive: -3.98%,
COc1ccc(CCNC(=O)CCS(=O)(=O)c2cc(Br)cc3c2N(C(C)=O)CC3)cc1OC,inactive: -13.1%,
Cc1ccc(CNC(=O)C2COc3ccccc3C2)cc1 (centres undefined),inactive: 58.7%,
COC(=O)CSc1nc2sc3c(c2c(=O)n1-c1ccccc1C)CC(C)(C)OC3,inactive: 1.21%,
Clc1ccc(-c2nc3c4cnn(-c5ccccc5Br)c4ncn3n2)c(Cl)c1,inactive: 8.06%,
